This assay relates to HCMV laboratory-adapted strain AD169-GFP. Put plainly: microbe, parasite or virus in culture. The following applies: for IC50 / IC90: Human betaherpesvirus 5, AD169, AD169-GFP. The procedure: For standard assays, human foreskin fibroblast (HFF) cells were cultured in black 96-well plates (Corning, USA) and infected with recombinant laboratory-adapted strains of AD169-GFP with various MOIs to compare MOI dependency of (+)-JQ-1 treatment. (MOIs of 1, 0.3, 0.1, and 0.03) After virus adsorption, the virus inoculum was replaced with 200 μl medium containing the respective bromodomain inhibitors followed by serial 2-fold dilutions. Drug concentrations were tested at least in duplicate and the drug concentrations were maintained by replaced the medium every 24 hours. Plates were incubated at 37 C for 7-8 days. The medium was replaced by 200 μl PBS, and GFP units (GFPU) were determined by a fluorescence detector (BioTek Synergy H1, USA). IC50 and IC90 values were calculated using nonlinear regression curve fit with a variable slope (four parameters). GraphPad Prism 6 was used for the analysis.

1 molecule from patent US20150366877A1, “METHODS OF TREATMENT OF HUMAN CYTOMEGALOVIRUS INFECTION AND DISEASES WITH BROMODOMAIN INHIBITORS” (Washington University, priority 2013, published 2015) can be followed below.

Structures are written as SMILES.

Turning to `Cc1sc2c(c1C)C(c1ccc(Cl)cc1)=N[C@@H](CC(=O)OC(C)(C)C)c1nnc(C)n1-2` [(+)-JQ1, 4-(4-chlorophenyl)-2,3,9-trimethyl-1,1-dimethylethyl ester-6H-thieno[3,2-f][1,2,4]triazolo[4,3-}{1,4}diazepine-6S-acetic acid], the IC50 runs as follows: (MOI 0.03) 58.6 nM; (MOI 0.1) 59 nM; (MOI 0.3) 68.4 nM; (MOI 1) 58.1 nM. Also, the IC90 (MOI 0.03) was determined as 144 nM, the IC90 (MOI 0.1) stood at 192 nM, the IC90 (MOI 0.3) was found to be 223 nM and the IC90 (MOI 1) worked out at 602 nM. The “MOI dependency of blocking of HCMV infection” value (compared to known CMV antivirals) is on record as “less MOI dependent”.

In general, IC50 refers to the midpoint of a concentration-inhibition curve. The IC90 is the concentration at which the effect reaches the 90% level.
